For at least one compound, name, drawing or mass did not settle the structure. Residues, ends and D or L forms follow the SMILES beside them. *: point of attachment. X14 = C[C@@H](COC(=O)N1CCC[C@]1(C)c1nc2c(C(N)=O)cccc2[nH]1)S*; X16 = C[C@H](COC(=O)N1CCC[C@]1(C)c1nc2c(C(N)=O)cccc2[nH]1)S*
System: PARP
Assay: Elisa PARylation assay in (BRCA−/−) DLD-1 cells, 16 h
Assay type: cell-based, Human
Details: pH 7.4, (BRCA−/−) DLD-1 cells, read-out: IC50 Elisa PARP Inhibition(nM) pH 7.4 (BRCA−/−) DLD-1 cells, 16 h

| Compound | IC50 [nM] |
| --- | --- |
| CC(C)C[C@H](NC(=O)[C@H](Cc1ccc(O)cc1)NC(=O)[C@H](C)NC(=O)[C@H](CCCNC(=N)N)NC(=O)[C@H](Cc1c[nH]c2ccccc12)NC(=O)[C@@H]1CCCN1C(=O)[C@H](CC(N)=O)NC(=O)[C@H](CCC(N)=O)NC(=O)[C@H](CC(=O)O)NC(=O)[C@H](CC(=O)O)NC(=O)[C@H](C)N)C(=O)N[C@@H](CC(=O)O)C(=O)N[C@@H](CC(C)C)C(=O)N[C@@H](CC(C)C)C(=O)N[C@@H](Cc1ccccc1)C(=O)N1CCC[C@H]1C(=O)N[C@H](C(=O)N[C@@H](CC(=O)O)C(=O)N[C@H](C(=O)N[C@@H](CC(C)C)C(=O)N[C@@H](CC(C)C)C(=O)N[C@@H](CC(C)C)C(=O)N[C@@H](CC(=O)O)C(=O)N[C@@H](CC(C)C)C(=O)N[C@@H](CC(C)C)C(=O)N[C@@H](Cc1c[nH]c2ccccc12)C(=O)N[C@@H](CC(=O)O)C(=O)N[C@@H](C)C(=O)N[C@@H](CC(=O)O)C(=O)N[C@@H](CCC(=O)O)C(=O)N[C@@H](CSS[C@H](C)COC(=O)N1CCC[C@]1(C)c1nc2c(C(N)=O)cccc2[nH]1)C(=O)NCC(=O)O)[C@@H](C)O)[C@@H](C)O [Example 51] | 4180 |
| CC[C@H](C)[C@H](NC(=O)[C@@H]1CCCN1C(=O)[C@H](CC(N)=O)NC(=O)[C@H](CCC(N)=O)NC(=O)[C@H](CCC(=O)O)NC(=O)[C@H](C)N)C(=O)N[C@@H](Cc1ccc(O)cc1)C(=O)N[C@@H](Cc1c[nH]c2ccccc12)C(=O)N[C@@H](C)C(=O)N[C@@H](CCCNC(=N)N)C(=O)N[C@@H](Cc1ccc(O)cc1)C(=O)N[C@@H](C)C(=O)N[C@@H](CC(=O)O)C(=O)N[C@@H](Cc1c[nH]c2ccccc12)C(=O)N[C@@H](CC(C)C)C(=O)N[C@@H](Cc1ccccc1)C(=O)N[C@H](C(=O)N[C@H](C(=O)N1CCC[C@H]1C(=O)N[C@@H](CC(C)C)C(=O)N[C@@H](CC(C)C)C(=O)N[C@@H](CC(C)C)C(=O)N[C@@H](CC(C)C)C(=O)N[C@@H](CC(=O)O)C(=O)N[C@@H](CC(C)C)C(=O)N[C@@H](C)C(=O)N[C@@H](CC(C)C)C(=O)N[C@@H](CC(C)C)C(=O)N[C@H](C(=O)N[C@@H](CC(=O)O)C(=O)N[C@@H](C)C(=O)N[C@@H](CC(=O)O)C(=O)N[C@@H](CCC(=O)O)C(=O)N[C@@H](CSS[C@H](C)COC(=O)N1CCC[C@]1(C)c1nc2c(C(N)=O)cccc2[nH]1)C(=O)NCC(=O)O)C(C)C)[C@@H](C)O)[C@@H](C)O [Example 54] (H-AEQNPIYWARYADWLFTTPLLLLDLALLVDADEC(X16)G-OH; N-terminus and C-terminus assumed) | 1860 |
| CC[C@H](C)[C@H](NC(=O)[C@@H]1CCCN1C(=O)[C@H](CC(N)=O)NC(=O)[C@H](CCC(N)=O)NC(=O)[C@H](CCC(=O)O)NC(=O)[C@H](C)N)C(=O)N[C@@H](Cc1ccc(O)cc1)C(=O)N[C@@H](Cc1c[nH]c2ccccc12)C(=O)N[C@@H](C)C(=O)N[C@@H](CCCNC(=N)N)C(=O)N[C@@H](Cc1ccc(O)cc1)C(=O)N[C@@H](C)C(=O)N[C@@H](CC(=O)O)C(=O)N[C@@H](Cc1c[nH]c2ccccc12)C(=O)N[C@@H](CC(C)C)C(=O)N[C@@H](Cc1ccccc1)C(=O)N[C@H](C(=O)N[C@H](C(=O)N1CCC[C@H]1C(=O)N[C@@H](CC(C)C)C(=O)N[C@@H](CC(C)C)C(=O)N[C@@H](CC(C)C)C(=O)N[C@@H](CC(C)C)C(=O)N[C@@H](CC(=O)O)C(=O)N[C@@H](CC(C)C)C(=O)N[C@@H](C)C(=O)N[C@@H](CC(C)C)C(=O)N[C@@H](CC(C)C)C(=O)N[C@H](C(=O)N[C@@H](CC(=O)O)C(=O)N[C@@H](C)C(=O)N[C@@H](CC(=O)O)C(=O)N[C@@H](CCC(=O)O)C(=O)N[C@@H](CSS[C@@H](C)COC(=O)N1CCC[C@]1(C)c1nc2c(C(N)=O)cccc2[nH]1)C(=O)NCC(=O)O)C(C)C)[C@@H](C)O)[C@@H](C)O [Example 55] (H-AEQNPIYWARYADWLFTTPLLLLDLALLVDADEC(X14)G-OH; N-terminus and C-terminus assumed) | 2930 |
